{"source": "PubChem BioAssay AID493208", "about": "(National Center for Advancing Translational Sciences (NCATS), 2011)", "note": "Out of some 44,000 compounds screened, about 340 (0.77%) were called active. About 5% were inconclusive and are not listed. The call rests on the fitted dose curve; in most records, active means well fitted inhibition curve with a large enough effect; inconclusive means small, poorly fitted or top-dose-only effect; inactive means flat fitted curve, though single readings scatter. The list shows a part of the results.", "data": [{"assay": "Acumen qHTS Assay for Inhibitors of the mTORC1 Signaling Pathway in MEF (Tsc2-/-, p53-/-) Cells: Sytravon; further: nearly all actives have a fitted effect of over 50% in size", "details": "phospho-rpS6 immunofluorescence/PI, 24 h; series mostly up to 38.3 µM; activity change, negative = inhibition: at the top concentration", "source_text": "NIH Molecular Libraries Probe Production Centers Network [MLPCN] NIH Chemical Genomics Center [NCGC] MLPCN Grant: NS059428-01 Assay Submitter (PI): Blenis, John; Hoffman, Greg; Harvard University NCGC Assay Overview: The mammalian target of rapamycin (mTOR) is an intracellular serine/threonine kinase Aberrant regulation of mTOR signaling plays a causative role in a number of human diseases, including cancer, benign tumors such as lymphangioleiomyomatosis (LAM) and Tuberous Sclerosis Complex (TSC), and metabolic diseases such as diabetes and obesity. This project aims to identify inhibitors of ribosomal protein S6 (rpS6) phosphorylation. The phosphorylation of rpS6 is a key event downstream of mTOR activation. The assay uses a phospho-specific antibody of phospho-rpS6 to detect inhibitors of mTOR activation. Mutations in the Tsc1 and Tsc2 genes are the underlying genetic lesions responsible for TSC, causing constitutive activation of the mTORC1 pathway and leading to profound effects on cell metabolism. Aberrant metabolism in cancer has recently received significant attention as a target to develop therapeutic agents in the treatment of cancer.1 As Tsc2-/- cells have lost the ability to respond to energy and growth factor deprivation, these cells are unable to properly down regulate cellular biosynthetic processes in response to metabolic stress, and are thus extremely sensitive to glucose deprivation-induced death.2 A central goal of this project is to explore the unique cell survival and metabolic properties of cells with Tsc1 or Tsc2 by screening for compounds that selectively target the Tsc2-/- MEFs by screening both Tsc2-/- and WT MEF cell lines. We hope to better understand these aspects of TSC physiology in order to exploit them for therapeutic benefit.\nNCGC Acumen Assay Protocol Summary: For quantitative high throughput analysis of mTORC1 signaling, we developed a cell-based assay for immuno-fluorescence based detection of rpS6 phosphorylation on the Acumen Explorer that will be used a platform for the primary small molecule screen. Mouse embryonic fibroblasts (MEFs) are cultured in 1536-well plates using DMEM + 10% FBS. Twenty-four hrs after plating, test compounds (solubilized in DMSO) are delivered and incubated with the cells for 24 hrs at 37 degree Celsius. Following the incubation, media with compound is aspirated and the cells are fixed in 4% paraformaldehyde (PFA) containing PBS + 0.2% TX-100. Next, PFA is aspirated, cells are washed two times with PBS plus 0.2% TX-100 and the cells are blocked for 1 hr at room temperature (blocking buffer: LiCOR Blocking Buffer plus 0.2% TX-100). […] Cells are washed two times with PBS plus 0.2% TX-100, and stained with 10 uM propidium iodide (PI) for 20-25 minutes for cell number measurement (1:500 dilution of Hoescht staining is also added for IN Cell imaging). The plates are scanned on the Acumen Explorer laser scanning instrument (TTP Labtech) using the 488nm laser for simultaneous excitation of the Alexa-488 and PI. […] The normalized phospho-S6 staining is calculated as the ratio of the integrated Alexa 488 intensity divided by the integrated PI intensity for the single concentration rapamycin control (7.5 nM) and DMSO columns. […] Inhibition of the pathway is defined based on the normalized phospho-S6 intensity in rapamycin treated cells. Active cells are defined as those with a normalized phospho-S6 staining above this threshold, and each treatment is reported as the % positive cells in the well, where thresholds are defined by selecting wells with the highest and lowest signal and differentiating between the % non-active and % active populations. In addition to the pathway specific phospho-S6 endpoint, the number of PI stained cells from the Acumen is recorded as a measure of cell viability. The primary screen was performed with a MEF cell line in a defined genetic background, Tsc2-/-, p53-/- cell line stably transfected with an empty vector control (Tsc2-/- MEF).", "values": [{"molecule": "Fc1cccc(CSc2nc(NCCc3ccccc3)c3ccccc3n2)c1", "activity change, negative = inhibition": "inactive: -0.783%"}, {"molecule": "COc1ccccc1OCC(=O)Nc1cc(-c2ccc(C)cc2)no1", "activity change, negative = inhibition": "inactive: 2.37%"}, {"molecule": "CC(=O)c1cc(-c2ccc(F)cc2)n(CC(=O)NCc2ccc(C)cc2)c1C", "activity change, negative = inhibition": "inactive: -2.62%"}, {"molecule": "COc1cc(NS(=O)(=O)c2cccs2)cc(OC)c1", "activity change, negative = inhibition": "inactive: 1.72%"}, {"molecule": "Cc1cc(C)c(OCC(=O)Nc2cccc(-c3nc4ncccc4o3)c2)c(Br)c1", "activity change, negative = inhibition": "inactive: -13.1%"}, {"molecule": "Cc1ccc(CSc2ncccc2C(=O)O)cc1", "activity change, negative = inhibition": "inactive: 0.233%"}, {"molecule": "Cc1ccc(S(=O)(=O)N2CCCc3cc(NC(=O)c4ccc(C(C)(C)C)cc4)ccc32)cc1", "activity change, negative = inhibition": "inactive: 4.61%"}, {"molecule": "CCN(CC)c1ccc(NC(=O)c2sc3nc(-c4ccccc4)cn3c2C)cc1", "activity change, negative = inhibition": "inactive: -12.4%"}, {"molecule": "Cc1nc(-c2ccc(F)cc2)sc1CCNC(=O)C(=O)Nc1ccc2c(c1)OCO2", "activity change, negative = inhibition": "inactive: 2.02%"}, {"molecule": "CCCn1c2ccccc2c2cnn(CC(=O)NCCc3cc(OC)ccc3OC)c(=O)c21", "activity change, negative = inhibition": "inactive: -3.06%"}, {"molecule": "CCOC(=O)c1cccc(NC(=O)NCc2ccc3c(c2)CCN3C(=O)CC)c1", "activity change, negative = inhibition": "inactive: 0.91%"}, {"molecule": "COc1ccc(N2CCN(C(=O)c3nn(C)c4c3CSc3ccccc3-4)CC2)cc1", "activity change, negative = inhibition": "inactive: -19.4%"}, {"molecule": "CC1=C(C(=O)Nc2cccc(C(F)(F)F)c2)C(c2ccccn2)n2ncnc2N1", "note": "(centres undefined)", "activity change, negative = inhibition": "inactive: 2.14%"}, {"molecule": "CCc1ccc(C(=O)c2cn(CC(=O)Nc3ccc(OC)c(Cl)c3)c3nc(C)ccc3c2=O)cc1", "activity change, negative = inhibition": "inactive: 0.145%"}, {"molecule": "Cc1ccc(Cl)cc1NC(=O)Cn1cc(S(=O)(=O)Cc2ccccc2Cl)c2ccccc21", "activity change, negative = inhibition": "inactive: -1.55%"}, {"molecule": "CCC(=O)Nc1ccccc1-c1nc2ccccc2n(CC(=O)c2ccc(Br)cc2)c1=O", "activity change, negative = inhibition": "inactive: -0.209%"}, {"molecule": "Cc1cc(C)cc(OCC(=O)NCC2(N3CCOCC3)CCCCC2)c1", "activity change, negative = inhibition": "inactive: -15.7%"}, {"molecule": "O=C(Cn1c(SCCOc2ccccc2Cl)nc2ccccc21)N1CCCCC1", "activity change, negative = inhibition": "inactive: -2.28%"}, {"molecule": "CCCc1cc(=O)[nH]c(SCc2nc(-c3ccc(OC)cc3)no2)n1", "activity change, negative = inhibition": "inactive: -22.2%"}, {"molecule": "COc1ccc(CC(=O)NCCc2csc(-c3cccc(F)c3)n2)cc1OC", "activity change, negative = inhibition": "inactive: -1.83%"}, {"molecule": "N#Cc1ccccc1Cn1c(=O)n(-c2ccc(F)c(Cl)c2)c(=O)c2sccc21", "activity change, negative = inhibition": "inactive: -1.43%"}, {"molecule": "Cc1ccc(S(=O)(=O)Nc2cc3c(C(=O)OCc4ccccc4)c(C)oc3c3ccccc23)cc1", "activity change, negative = inhibition": "inactive: -10.3%"}, {"molecule": "O=C(C1CCN(c2ncnc3c2nc2n3CCCCC2)CC1)N1CCN(c2ccccc2)CC1", "activity change, negative = inhibition": "inactive: 1.54%"}, {"molecule": "CCOC(=O)c1ccccc1NC(=O)c1sc2ncn(CC)c(=O)c2c1C", "activity change, negative = inhibition": "inactive: -2.81%"}, {"molecule": "COc1ccc(F)cc1NC(=O)C1CCN(c2nc(-c3ccc(OC)c(OC)c3)no2)CC1", "activity change, negative = inhibition": "inactive: -0.308%"}, {"molecule": "Cc1ccc(-n2nc(C)c3c(C)cc(=O)n(CC(=O)NCc4ccc(OC(C)C)cc4)c32)cc1", "activity change, negative = inhibition": "inactive: -15.1%"}, {"molecule": "O=C(COc1ccc(F)cc1)Nc1cccc(OCc2cc(=O)n3ccccc3n2)c1", "activity change, negative = inhibition": "inactive: -1.79%"}, {"molecule": "COc1ccc(Nc2ncc(C(=O)Nc3cc(C)ccc3OC)c3ccccc23)cc1", "activity change, negative = inhibition": "inactive: -17.2%"}, {"molecule": "Cc1ccc2c(c1)c1c(c(=O)n(-c3ccccc3C)c(=O)n1Cc1ccccc1F)n2C", "activity change, negative = inhibition": "inactive: -0.264%"}, {"molecule": "COc1ccc(NC(=O)CCc2c(C)nc3c(-c4ccccc4)c(C)nn3c2C)cc1Cl", "activity change, negative = inhibition": "inactive: -7.62%"}, {"molecule": "Cn1c(C(=O)NCc2ccc(Cl)cc2)cc2c(=O)n(C)c3ccccc3c21", "activity change, negative = inhibition": "inactive: 0.344%"}, {"molecule": "Cc1ccc(Cl)cc1NC(=O)Cn1c(=O)oc2cc(S(=O)(=O)N3CCCCCC3)ccc21", "activity change, negative = inhibition": "inactive: -1.25%"}, {"molecule": "COc1ccc(-c2noc(C(C)NC(=O)c3ccco3)n2)cc1", "note": "(centres undefined)", "activity change, negative = inhibition": "inactive: -17.6%"}, {"molecule": "Cc1ccc(NC(=O)c2ccc(=O)n(CC(=O)Nc3cc(C)cc(C)c3)n2)cc1", "activity change, negative = inhibition": "inactive: -0.321%"}, {"molecule": "Cc1ccc(OCC(=O)Nc2c(Cl)ccc3nsnc23)cc1C", "activity change, negative = inhibition": "inactive: -0.655%"}, {"molecule": "Fc1ccc(-n2ncc3c(Nc4ccc(Oc5ccccc5)cc4)ncnc32)cc1", "activity change, negative = inhibition": "inactive: 13.5%"}, {"molecule": "COc1cc(C(c2c(C)[nH][nH]c2=O)c2c(C)[nH][nH]c2=O)ccc1OC(=O)c1ccccc1F", "activity change, negative = inhibition": "inactive: -4.45%"}, {"molecule": "CCCN1CCN(CCCNC(=O)c2cnn(-c3ccc(C)cc3)c2-n2cccc2)CC1", "activity change, negative = inhibition": "inactive: -1.81%"}, {"molecule": "CC(=O)c1cccc(Nc2c3c(nc4nc(-c5cccs5)nn24)CCCC3)c1", "activity change, negative = inhibition": "inactive: -5.67%"}, {"molecule": "CC(=O)Nc1ccc(NC(=O)CSc2nnc3c4cc(Br)ccc4n(C)c3n2)cc1", "activity change, negative = inhibition": "inactive: 8.14%"}, {"molecule": "COC(=O)c1ccc2oc(=O)c(S(=O)(=O)c3ccc(C)cc3)cc2c1", "activity change, negative = inhibition": "inactive: -7.83%"}, {"molecule": "CCCC(=O)Nc1cccc(-c2nc3cc(C)c(C)cc3o2)c1C", "activity change, negative = inhibition": "inactive: 13.9%"}, {"molecule": "Cc1ccc(CNC(=O)C2CCN(c3nc4ccc(C)cc4[nH]3)CC2)cc1", "activity change, negative = inhibition": "inactive: 0%"}, {"molecule": "Cc1ccc2c(c1)c1c(c(=O)n(-c3cccc(Cl)c3)c(=O)n1C)n2C", "activity change, negative = inhibition": "inactive: -1.66%"}, {"molecule": "CCSc1ncc(Cl)c(C(=O)Nc2sc(C(C)=O)c(C)c2C(=O)OC)n1", "activity change, negative = inhibition": "inactive: 4.44%"}, {"molecule": "COc1cc(OC)c(NC(=O)c2cnc(N3CCCC3)nc2C)cc1Cl", "activity change, negative = inhibition": "inactive: 13.7%"}, {"molecule": "COc1ccc(CNC(=O)c2ccc(Sc3ccc(Cl)cc3)c(NC(C)=O)c2)c(OC)c1", "activity change, negative = inhibition": "inactive: 8.97%"}, {"molecule": "CCOC(=O)c1c(NC(=O)c2cc3nc(-c4ccc(OC)cc4)cc(C(F)(F)F)n3n2)sc(C)c1C", "activity change, negative = inhibition": "inactive: -4.6%"}, {"molecule": "O=C1CN(C(=O)COc2ccc(Cl)cc2Cl)C(c2ccc(F)cc2)c2cc(F)ccc2N1", "note": "(centres undefined)", "activity change, negative = inhibition": "inactive: -5.1%"}]}]}
